# According to PMC4336329 (PLoS ONE, 2015):
# Screen size: about 310,000 compounds; about 14,000 (4.5%) showed an effect of 50% or more. The effect is printed as a negative number. The list shows a part of the results.
# Molecular target: human ether-à-go-go-related gene (hERG) potassium channel (human, UniProt Q12809)
# Experiment: primary screen, population patch clamp on CHO cells stably expressing hERG
# 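Further: peak tail current of the secondary pulse compared with the same well before compound.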
# human ether-à-go-go-related gene (hERG) potassium channel, sequence (Q12809 whole entry, looked up): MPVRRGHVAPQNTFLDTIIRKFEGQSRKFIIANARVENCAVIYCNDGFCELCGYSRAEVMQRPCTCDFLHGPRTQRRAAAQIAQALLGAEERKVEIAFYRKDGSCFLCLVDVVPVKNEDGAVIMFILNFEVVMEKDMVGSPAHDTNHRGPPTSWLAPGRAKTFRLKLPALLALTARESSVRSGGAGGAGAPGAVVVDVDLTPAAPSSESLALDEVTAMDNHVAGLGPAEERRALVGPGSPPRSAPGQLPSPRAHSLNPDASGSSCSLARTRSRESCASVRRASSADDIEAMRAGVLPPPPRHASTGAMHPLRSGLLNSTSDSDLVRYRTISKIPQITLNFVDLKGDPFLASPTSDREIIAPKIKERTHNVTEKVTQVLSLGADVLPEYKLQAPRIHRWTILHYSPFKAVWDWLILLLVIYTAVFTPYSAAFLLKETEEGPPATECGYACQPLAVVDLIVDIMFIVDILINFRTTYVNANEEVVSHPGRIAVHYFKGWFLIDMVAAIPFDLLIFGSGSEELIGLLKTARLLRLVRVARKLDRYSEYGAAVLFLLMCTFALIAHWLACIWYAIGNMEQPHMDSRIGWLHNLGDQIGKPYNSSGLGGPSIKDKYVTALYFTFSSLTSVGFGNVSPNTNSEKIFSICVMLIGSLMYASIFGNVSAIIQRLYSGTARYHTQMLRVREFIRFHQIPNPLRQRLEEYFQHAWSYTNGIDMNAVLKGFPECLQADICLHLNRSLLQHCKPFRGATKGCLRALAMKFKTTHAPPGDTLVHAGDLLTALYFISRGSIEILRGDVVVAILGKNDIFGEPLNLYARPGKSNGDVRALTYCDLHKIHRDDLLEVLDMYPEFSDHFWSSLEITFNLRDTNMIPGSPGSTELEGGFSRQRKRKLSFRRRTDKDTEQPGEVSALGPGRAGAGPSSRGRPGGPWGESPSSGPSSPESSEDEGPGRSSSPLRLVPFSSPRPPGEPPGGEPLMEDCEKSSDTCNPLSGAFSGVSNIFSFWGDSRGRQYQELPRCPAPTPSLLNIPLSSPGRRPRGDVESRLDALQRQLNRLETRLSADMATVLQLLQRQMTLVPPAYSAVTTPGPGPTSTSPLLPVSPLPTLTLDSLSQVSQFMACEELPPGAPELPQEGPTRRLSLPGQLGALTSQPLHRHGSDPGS
row,Compound,"hERG current change (%, negative = inhibition) at 10uM [%]"
1,CC1(C)C(=O)NCCN1C(=O)CC1C(=O)NCCN1Cc1cccc(C(F)(F)F)c1 (stereo not drawn),10.3
2,CN(c1ccccc1)S(=O)(=O)c1ccc(C(=O)NCCc2ccc(F)cc2)cc1,-21.1
3,CCOC(=O)N1CCN(S(=O)(=O)c2ccc(C)cc2)C1c1ccc(OC)cc1 (stereo not drawn),-11.9
4,O=C(CN1C(=O)NC2(CCCC2)C1=O)N1CCN(S(=O)(=O)c2ccccc2[N+](=O)[O-])CC1,7.61
5,Nc1nc2ccc([N+](=O)[O-])cc2[nH]1,20.6
6,CCN(CC(=O)NCc1ccco1)S(=O)(=O)c1ccc(OC)cc1,3.31
7,Cc1nc2c(-c3ccc(Cl)cc3)c(C)[nH]n2c(=O)c1Cc1ccccc1,4.24
8,CN1CCN(C(=O)/C(=C/c2ccc([N+](=O)[O-])cc2)NC(=O)c2ccccc2)CC1,-81.5
9,S=C(NCCc1ccccc1)N1CCCCC1,14.4
10,Cc1cccc(NC(=O)CCn2cnnn2)c1,15.1
11,O=C(c1ccccc1)c1cc([N+](=O)[O-])ccc1N1CCOCC1,-30.7
12,Cn1c(=O)cc(OCC(=O)NCCc2ccc(Cl)cc2)c2ccccc21,-28.5
13,Cc1ccc(C(=O)N(C)CCOc2ccccc2)cc1S(=O)(=O)N1CCOCC1,-15.6
14,O=C(CN1CCOCC1)NN=C1CCCCCCCCCCC1,-8.88
15,Cc1cc(C)n(-c2ccc(C(=O)OCC(=O)Nc3ccc([N+](=O)[O-])cc3)cc2)n1,-10.6
16,O=C(NCc1ccc2c(c1)OCO2)Nc1ccc([N+](=O)[O-])cc1,21.1
17,O=C(Nc1ccc2c(c1)OCO2)c1cc(-c2cccc(O)c2)on1,-63.1
18,CCc1c(C)sc(NC(=O)c2ccccc2[N+](=O)[O-])c1C(N)=O,15.3
19,O=C(O)c1cccc(-n2nc(-c3ccc(Cl)c([N+](=O)[O-])c3)c3ccccc3c2=O)c1,6.68

row,Compound,"hERG current change (%, negative = inhibition) at 10uM [%]"
1,CSc1ccc(S(=O)(=O)N2CCC(C(=O)NCCCn3ccnc3)CC2)cc1,-4.91
2,CC(C)(C)C(=O)OCc1nc(-c2ccc3c(c2)OCCO3)cs1,10.8
3,CN(C)CCCN(C(=O)c1ccco1)c1nc2ccc(Cl)cc2s1.Cl,-73.4
4,c1ccc(Nc2cccc(Nc3ccccc3)c2)cc1,13.5
5,O=[N+]([O-])c1ccccc1OCCCNCc1ccccc1,-29.6
6,CCOC(=O)c1ccc(CC(=O)c2oc3cc(O)ccc3c2C)o1,3.59
7,COc1cc(C(=O)NCC2(N(C)C)CCCCC2)ccc1OCc1ccccc1,-59.7
8,CC1=C(Sc2ccccn2)C(=O)NC(C)(C)C1,19.4
9,COC(=O)CSc1nc2cc3c(cc2cc1C)OCO3,9.15
10,COc1ccc(C2=NN(C(=O)CSc3cn(C)c4ccccc34)C(c3ccc(OC)cc3)C2)cc1 (stereo not drawn),8.44
11,COc1cccc(N2CCN(C(=O)c3ccc(CSc4nc5ccncc5[nH]4)cc3)CC2)c1,-15.4
12,CC(C)(C)c1ccc(OCc2ccc(C(=O)N/N=C/c3ccc(O)c(O)c3)cc2)cc1,13.2
13,Cc1cccc(N2CCN(Cc3ccoc3)CC2)c1C,-33.5
14,O=CN1CCN(C(=O)c2ccccc2Cl)CC1,11.8
15,C#CCOn1c(-n2nc(C)cc2C)nc2ccccc2c1=O,12.6
16,O=C1CC(C2CCCO2)C(=O)N1c1cccc(Cl)c1 (stereo not drawn),17.3
17,COc1ccc(NCc2nnc(SCC(=O)NCc3ccco3)n2-c2ccccc2OC)cc1,-4.27
18,COc1ccc2nc(SCC(N)=O)cc(C)c2c1,7.61
19,O=C(O)C1CCCCC1C(=O)Nc1cccc(C(=O)N2CCCCC2)c1 (stereo not drawn),7.12

row,Compound,"hERG current change (%, negative = inhibition) at 10uM [%]"
1,CCOc1ccc(CCNC(=O)c2ccc3ccccc3n2)cc1OCC,-15.7
2,Cc1cc(Cl)ccc1OCCCC(=O)NCCCn1ccnc1,-68.1
3,O=C(NCc1ccco1)c1ccc(Br)c(S(=O)(=O)N2CCCCC2)c1,-53
4,C=CCn1c(SCC(C)=O)nc2sc3c(c2c1=O)CCC3,-2.16
5,CCN(CC)S(=O)(=O)c1ccc(Cl)c(C(=O)Nc2ccc(Cl)cc2[N+](=O)[O-])c1,-12.6
6,O=C(O)c1ccc(COc2ccc([N+](=O)[O-])cc2)o1,23.2
7,Cc1ccc(S(=O)(=O)NC(CC(C)C)C(=O)N2CCCCCCC2)cc1 (stereo not drawn),-6.51
8,CCOc1ccc(Br)cc1S(=O)(=O)NC1CCCC1,-0.874
9,CCn1cc(CNC(=O)c2cc(-c3ccccc3OC)nc3ccccc23)c(C)n1,-19.5
10,CSc1nc(N2CCN(c3ccccc3)CC2)cc(N2CCN(c3ccccc3)CC2)n1,18.3
11,CN(C)Cc1c(C(=O)N/N=C/C2CC=CCC2)nnn1-c1nonc1N (stereo not drawn),-20.6
12,COC(=O)C1CCN(C(=O)C23CCC(C)(C(=O)O2)C3(C)C)CC1 (stereo not drawn),10.7
13,CCN1CCN(C(=O)CS(=O)(=O)Cc2nc(-c3ccc(C)cc3)oc2C)CC1,3.27
14,CC(OC(=O)CN1C(=O)NC2(CCCC2)C1=O)C(=O)c1ccccc1 (stereo not drawn),2.22
15,CCSc1ccc2nnc(-c3cccc(F)c3)n2n1,-33.6
16,CSc1ccc(S(=O)(=O)N2CCC(C(=O)N3CCOCC3)CC2)cc1,2.57
17,O=c1oc(-c2ccc(Br)cc2)nc2ccccc12,17.8
18,CCOC(=O)CSc1nnc2n(C3CCCCC3)c(=O)c3c4c(sc3n12)CCCC4,-3.49
19,O/N=C1\CC(O)Cc2nonc21 (stereo not drawn),16.5
